{"source": "paper PMC9911399", "about": "“Two distinct binding modes provide the RNA-binding protein RbFox with extraordinary sequence specificity”", "binders": {"B1": {"name": "AAGCACU (DNA:RNA)", "RNA": "GGGAGACCGGAAUUCAGAUUGUCCAAGCACUUUAAAUCCCGUCGUAGCCACCA", "DNA 1": "CAATCTGAATTCCGGTCTCCC", "DNA 2": "TGGTGGCTACGACGGGATT"}, "B2": {"name": "GAGCUCG (DNA:RNA)", "RNA": "B1 RNA with A25G, A29U, U31G", "DNA 1": "CAATCTGAATTCCGGTCTCCC", "DNA 2": "TGGTGGCTACGACGGGATT"}, "B3": {"name": "ACCUGUU (DNA:RNA)", "RNA": "B1 RNA with A26C, G27C, C28U, A29G, C30U", "DNA 1": "CAATCTGAATTCCGGTCTCCC", "DNA 2": "TGGTGGCTACGACGGGATT"}, "B4": {"name": "UGUCGUC (DNA:RNA)", "RNA": "B1 RNA with A25U, A26G, G27U, A29G, C30U, U31C", "DNA 1": "CAATCTGAATTCCGGTCTCCC", "DNA 2": "TGGTGGCTACGACGGGATT"}, "B5": {"name": "AUAUGAA (DNA:RNA)", "RNA": "B1 RNA with A26U, G27A, C28U, A29G, C30A, U31A", "DNA 1": "CAATCTGAATTCCGGTCTCCC", "DNA 2": "TGGTGGCTACGACGGGATT"}, "B6": {"name": "CCCGGCU (DNA:RNA)", "RNA": "B1 RNA with A25C, A26C, G27C, C28G, A29G", "DNA 1": "CAATCTGAATTCCGGTCTCCC", "DNA 2": "TGGTGGCTACGACGGGATT"}, "B7": {"name": "UUUGGGG (DNA:RNA)", "RNA": "GGGAGACCGGAAUUCAGAUUGUCCUUUGGGGUUAAAUCCCGUCGUAGCCACCA", "DNA 1": "CAATCTGAATTCCGGTCTCCC", "DNA 2": "TGGTGGCTACGACGGGATT"}, "B8": {"name": "UCGCACA (DNA:RNA)", "RNA": "B1 RNA with A25U, A26C, U31A", "DNA 1": "CAATCTGAATTCCGGTCTCCC", "DNA 2": "TGGTGGCTACGACGGGATT"}, "B9": {"name": "CGGGCCA (DNA:RNA)", "RNA": "B1 RNA with A25C, A26G, C28G, A29C, U31A", "DNA 1": "CAATCTGAATTCCGGTCTCCC", "DNA 2": "TGGTGGCTACGACGGGATT"}}, "note": "Residue numbers refer to the chain shown, from its start. The list shows a part of the results."}
{"molecular_target": "T1, RBFOX1 RRM (Homo sapiens, UniProt Q9NWB1 109-208)", "T1 sequence": "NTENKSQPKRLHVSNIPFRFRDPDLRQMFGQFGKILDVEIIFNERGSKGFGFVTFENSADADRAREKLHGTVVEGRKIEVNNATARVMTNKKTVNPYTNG", "assay": "EMSA; HiTS-Eq, 1 nM pool, 10 min; buffer printed only for the single-RNA assays: 10 mM Tris pH 7.5, 150 mM NaCl, 3.4 mM EDTA, 0.001% NP-40, 30 C", "conditions": "tags: His6 N-terminal (pET28a); label: 5' 32P", "in_short": "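Purified wild-type or mutant RbFox RRM at increasing concentrations was equilibrated with 1 nM of 5′-radiolabelled RNA carrying 7 randomized nucleotides for 10 min in 50 µL. Unbound RNA was separated by 8% native PAGE and sequenced. Relative association constants came from read-count changes of each RNA species compared with the control reaction, normalised to the cognate motif.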"}
{"binder": "B1", "binding signal": "0.00663 KA relative to UGCAUGU"}
{"binder": "B2", "binding signal": "0.0273 KA relative to UGCAUGU"}
{"binder": "B3", "binding signal": "0.00541 KA relative to UGCAUGU"}
{"binder": "B4", "binding signal": "0.0214 KA relative to UGCAUGU"}
{"binder": "B5", "binding signal": "0.00541 KA relative to UGCAUGU"}
{"binder": "B6", "binding signal": "0.00594 KA relative to UGCAUGU"}
{"binder": "B7", "binding signal": "0.00415 KA relative to UGCAUGU"}
{"binder": "B8", "binding signal": "0.0113 KA relative to UGCAUGU"}
{"binder": "B9", "binding signal": "0.0228 KA relative to UGCAUGU"}
